# The BET-seq Pho4 binding data (Le et al. 2018)
# Some of the results follow. These are noisy estimates, calculated here from bound and input reads.
# Target: T1, Pho4 (S. cerevisiae) (UniProt P07270)
# T1 sequence: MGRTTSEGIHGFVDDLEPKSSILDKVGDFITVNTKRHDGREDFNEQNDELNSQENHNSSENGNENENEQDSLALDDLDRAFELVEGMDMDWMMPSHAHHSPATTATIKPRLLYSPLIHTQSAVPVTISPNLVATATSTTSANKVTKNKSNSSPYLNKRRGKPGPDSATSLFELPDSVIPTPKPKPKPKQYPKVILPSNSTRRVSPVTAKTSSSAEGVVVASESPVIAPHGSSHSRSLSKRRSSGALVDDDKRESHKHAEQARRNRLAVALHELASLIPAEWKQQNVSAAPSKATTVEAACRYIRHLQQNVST
# Assay: relative binding free energy (BET-seq); higher = weaker binding
# Settings: reference: library average
row,Sequence,relative binding free energy [kcal/mol]
1,CGTTTCACGTGGGAAA,0.19
2,CGGGGCACGTGCGGGT,-0.17
3,AGAATCACGTGTTGGC,0.2
4,GATAACACGTGTATGT,0.06
5,GCATTCACGTGTGTTA,0.4
6,TTATGCACGTGGGCCA,-0.13
7,CTATGCACGTGTGTGT,-0.15
8,TTGGCCACGTGAAGGG,0.17
9,GAGTACACGTGTTCTT,0.37
10,AGTATCACGTGTTAAA,0.15
11,GTATGCACGTGCGATT,-0.04
12,AGAAACACGTGGTTTT,0.04
13,TGGATCACGTGCGGGA,-0.04
14,GTCGGCACGTGATGGC,0.07
15,TTCATCACGTGTGCTG,0.13
16,TTACACACGTGTAGTT,0.05
17,TTGAGCACGTGTTATG,-0.06
18,CGGGACACGTGATGTA,0.24
19,GGGGGCACGTGTTCAG,-0.17
20,TTTAGCACGTGCTGAT,-0.01
21,CTGGGCACGTGTGATA,-0.12
22,ATAATCACGTGGTGAA,0.01
23,GAGGGCACGTGGAGGG,-0.12
24,CGGCTCACGTGGCGGG,0.17
25,TGAGTCACGTGTATTA,0.24

row,Sequence,relative binding free energy [kcal/mol]
1,AGTCTCACGTGAGGAA,0.53
2,AACTGCACGTGGGTTT,-0.06
3,CGAGTCACGTGTGGTG,0.22
4,AGCAGCACGTGAGGGT,0.02
5,CGTTGCACGTGTACGT,0.05
6,TCGCGCACGTGGGGGG,-0.28
7,ATAAGCACGTGTTTGA,-0.04
8,CGATACACGTGTTTAT,0.19
9,TGCGTCACGTGTAGAT,0.15
10,GGGGGCACGTGTACCG,-0.16
11,GATTACACGTGATATT,0.28
12,ATGTACACGTGTGTGG,0.11
13,GAATCCACGTGTGGTT,0.19
14,AGATCCACGTGGGTTA,-0.01
15,TCAGACACGTGGTGTG,-0.05
16,AGGGGCACGTGTTTGC,-0.18
17,TAATTCACGTGTGAGG,0.34
18,AATAGCACGTGCGTTT,-0.08
19,TGGTCCACGTGTGTTG,0.03
20,GACATCACGTGTGTGT,0.13
21,AAATTCACGTGTCATG,0.39
22,GTTAGCACGTGGGGAC,-0.14
23,GGAGGCACGTGGGTAT,-0.09
24,GATAGCACGTGGAAGT,0.14
25,CGGTACACGTGGTAGA,-0.04

row,Sequence,relative binding free energy [kcal/mol]
1,CGGTACACGTGAGTTT,0.44
2,TCTTACACGTGCGGGG,-0.05
3,CGTATCACGTGGGTTT,-0.05
4,CTGGGCACGTGGTGGC,-0.07
5,TGGTACACGTGGGTCG,-0.08
6,ATACGCACGTGTTGGG,-0.19
7,ATTCACACGTGTTTAG,0.1
8,GTTCTCACGTGGCGGT,0.27
9,ATTGGCACGTGGGCTA,-0.17
10,ACTTTCACGTGTAGGG,0.23
11,ATGGGCACGTGATTTC,-0.02
12,TGTATCACGTGCAGAT,0.18
13,AATAGCACGTGCGTGT,-0.26
14,ATCGTCACGTGTATTT,0.19
15,ACTTTCACGTGGGGTA,0.01
16,TGTGACACGTGCCGGG,-0.17
17,GTGTGCACGTGTGAAC,0.06
18,GTGGACACGTGGGCTG,-0.06
19,ATCTACACGTGTAGTG,0.07
20,ACTGGCACGTGTAGAG,-0.01
21,GGCTGCACGTGTTGTG,-0.04
22,TATAGCACGTGAGCGT,0.18
23,CAGGGCACGTGAGAGG,0.09
24,ATGTTCACGTGGTTCG,0.35
25,TGTTTCACGTGCGGTC,0.29

row,Sequence,relative binding free energy [kcal/mol]
1,CGTGGCACGTGGAATA,0.01
2,ATGATCACGTGGCTTT,-0.09
3,AAAGTCACGTGAATTT,0.36
4,AGGGTCACGTGGGGGA,-0.03
5,ATACTCACGTGTGTGA,0.22
6,GTGGGCACGTGGCGTA,-0.12
7,CGGGACACGTGTTTGT,-0.05
8,CAGATCACGTGTGTTT,0.22
9,ACTGCCACGTGGAGGG,0
10,GTTTGCACGTGTCATG,0
11,ATGGGCACGTGAGGAT,0.2
12,GAAGGCACGTGATAAG,0.08
13,TTAATCACGTGCTGCT,0.09
14,GTAGGCACGTGGGAAA,-0.15
15,ATCTTCACGTGAGATT,0.53
16,GCTGACACGTGTTGTT,0
17,GGGAGCACGTGGCTTG,-0.25
18,ATGATCACGTGTCGTT,0.15
19,TGGTTCACGTGGTGGA,0.29
20,TGAGGCACGTGTTAAG,0
21,AATTACACGTGTCGTG,-0.04
22,TGTTCCACGTGGGTGC,0.07
23,CAAGGCACGTGATGGT,-0.05
24,GGTGACACGTGGTTCG,0.05
25,TATGGCACGTGATGTA,-0.08

row,Sequence,relative binding free energy [kcal/mol]
1,GTCGACACGTGTTAGG,0.09
2,GGCGGCACGTGAGTGG,0.09
3,CGTTTCACGTGGTCGG,0.14
4,TTCAGCACGTGGAGAG,-0.01
5,CGGGACACGTGTTTTG,0.03
6,GTATTCACGTGGACTT,0.33
7,ATTTTCACGTGCGTTC,0.19
8,TTTAGCACGTGTAGCG,0.02
9,GTCATCACGTGAGGAT,0.6
10,CTGCGCACGTGTGGTG,-0.23
11,TGGATCACGTGGTTAA,0.04
12,GTTATCACGTGGATGA,0.22
13,GGGTACACGTGGTTTT,0.1
14,AGGGGCACGTGTAGCG,0.06
15,TTAGTCACGTGAAATT,0.4
16,ACCGACACGTGGGGGG,-0.19
17,TGTGGCACGTGAGTCA,0.09
18,GATGACACGTGGATTT,0.14
19,GTAGGCACGTGGATGT,-0.01
20,CTGGTCACGTGGGCCG,-0.12
21,ATTCACACGTGGATGG,0.14
22,GGCTGCACGTGGGGAT,-0.02
23,ACGATCACGTGAGGTT,0.26
24,GTTTGCACGTGTGTCG,0
25,TAAGCCACGTGGGTAG,-0.14

row,Sequence,relative binding free energy [kcal/mol]
1,TTAAGCACGTGATAAG,-0.02
2,GTCTACACGTGGGAAT,0.28
3,TCGTGCACGTGAAGTG,0.01
4,TCAGGCACGTGAAGGG,0.07
5,AGGTACACGTGCTGTG,-0.04
6,GATATCACGTGTCGGT,0.23
7,TGATCCACGTGTAGGG,-0.03
8,TTAAGCACGTGTTGCT,-0.04
9,CTGGTCACGTGGCGTG,0.04
10,TGTGGCACGTGGCTGC,-0.19
11,GGTTTCACGTGGTACT,0.17
12,TAGGGCACGTGGAAGC,-0.09
13,CTCGTCACGTGTGATT,0.34
14,AGAGTCACGTGGGAGT,-0.01
15,AGACGCACGTGTAGTT,0.07
16,CAGTTCACGTGTGGAG,0.22
17,AAGAACACGTGTAGGG,0.06
18,TAAGGCACGTGCATAG,-0.11
19,AGCGCCACGTGGAGGG,-0.09
20,TTGAACACGTGGGGCC,-0.06
21,GTCGTCACGTGTAATG,0.01
